Measured values taken from PubChem BioAssay AID463173 (ICCB-Longwood Screening Facility, Harvard Medical School, 2010).
Among all 52,000 compounds or so, about 1,700 (3.3%) were called active. Cut-off read from the data, not from the text of the source: active = survival mostly below about 52% (no sharp cut-off); inactive = mostly above about 56%. This is one part of the list.

tested on: Wild type; experiment: growth inhibition of S. aureus wild type versus tarO mutant, primary screen, teichoic acid synthesis inhibitors, RN4220, OD600 (AID 463173); conditions: S. aureus RN4220 wild type/DeltatarO growth, OD600, 18 h, active compounds read low, screened at 18.75 µg/mL (by protocol)

Row | Compound | survival
1 | CCn1cc(C(=O)NCCCOC(C)C)c(=O)c2cc(S(=O)(=O)N(C)C3CCCCC3)ccc21 | inactive: 140%
2 | CCN(Cc1ccccc1)Cc1c(O)ccc2c(=O)c(-c3ccccc3Cl)coc12 | inactive: 73%
3 | O=C(O)CN1Cc2ccccc2C1 | inactive: 110%
4 | COc1cc(OC)c(NC(=O)CSCc2nc(-c3ccc(OC)c(OC)c3)no2)cc1Cl | inactive: 80%
5 | CC(=O)c1cccc(NC(=O)c2ccc3c(c2)c(C)c(C)n3Cc2ccc(Cl)cc2)c1 | inactive: 105%
6 | CCOC(=O)c1c(-c2ccccc2)csc1NC(=O)c1cc(-c2cccc(Cl)c2)on1 | inactive: 90%
7 | Cc1ccc(C)c(N2CCN(S(=O)(=O)c3ccc4c(c3)n(C)c(=O)c(=O)n4C)CC2)c1 | inactive: 80%
8 | O=C(NCc1ccccc1)c1ccc(Cn2c(=O)c3cccn3c3cccnc32)cc1 | inactive: 112%
9 | O=C(Nc1cc(-c2nc3cc(Cl)ccc3o2)ccc1Cl)c1cc2ccccc2o1 | inactive: 96%
10 | CN(Cc1ccccc1)S(=O)(=O)c1ccc(F)c(C(=O)Nc2cc(Cl)cc(Cl)c2)c1 | inactive: 76%
11 | CC1(C)CC(=O)c2cc(-c3nc(-c4ccc(Cl)cc4)cs3)c(=O)n(-c3cccc(F)c3)c2C1 | inactive: 93%
12 | COc1cc(C)ccc1OCCSc1nc2ccc(NC(=O)c3ccc(C)cc3)cc2s1 | inactive: 90%
13 | CCCNC(=O)C1CCN(Cc2cc3ccccc3n2Cc2ccccc2)CC1 | inactive: 68%
14 | CC(=O)c1cccc(Nc2nn(-c3ccc(OC(F)(F)F)cc3)nc2C(C)=O)c1 | inactive: 89%
15 | COc1ccc(CNC(=O)CCc2c(C)nc3nc(CNC(=O)OC(C)(C)C)nn3c2C)cc1 | inactive: 77%
16 | Cn1cc(C(=O)NCCc2ccccc2)c(=O)c2cc(S(=O)(=O)N3CCCCCC3)ccc21 | inactive: 87%
17 | Cc1c(C(=O)N(Cc2ccc(N(C)C)cc2)Cc2ccco2)oc2cc(Br)ccc12 | inactive: 87%
18 | COc1ccc(-c2ccc(CCC(=O)O)n2CC(=O)Nc2cccc(Cl)c2C)cc1 | inactive: 81%
19 | O=C(CN1C(=O)CC(c2ccco2)Sc2ccccc21)Nc1ccc(Br)cc1 (stereo unspecified) | inactive: 91%

Row | Compound | survival
20 | COc1ccccc1-c1noc(-c2ccc(NCc3cccnc3)c([N+](=O)[O-])c2)n1 | inactive: 92%
21 | CCc1cc2c(cc3c(=O)n(CC(=O)NC4CCCCC4)ncn32)s1 | inactive: 79%
22 | Cc1ccc(OCC(=O)Nc2ccc3[nH]c(=O)sc3c2)cc1 | inactive: 93%
23 | COc1ccc(-n2ccn(Cc3ccccc3C)c(=O)c2=O)cc1 | inactive: 115%
24 | Cc1cc(C)cc(NC(=O)C(=O)NCC(c2cccnc2)N2CCN(c3ccccc3)CC2)c1 (stereo unspecified) | inactive: 49%
25 | CCCCn1cc(S(=O)(=O)c2ccc(CC)cc2)c(=O)c2cc(F)c(N3CCOCC3)cc21 | inactive: 73%
26 | CCOc1ccc(N(C(C)C(=O)NCCSc2ccc(C)cc2)S(C)(=O)=O)cc1 (stereo unspecified) | inactive: 65%
27 | COc1cccc(C(c2sc3nc(-c4ccco4)nn3c2O)N2CCN(c3ccccc3F)CC2)c1 (stereo unspecified) | inactive: 81%
28 | COc1ccc(S(=O)(=O)N(C)C2CCCCC2)cc1 | inactive: 110%
29 | CC[n+]1c(C)sc2sc3ccccc3c21 | inactive: 98%
30 | COc1ccc(-c2cc(C(=O)NCCc3ccc(OC)c(OC)c3)c3ccccc3n2)cc1 | inactive: 68%
31 | COc1ccc(NC(=O)C(C)Sc2cc(-c3ccccc3)nc(C)n2)cc1Cl (stereo unspecified) | inactive: 81%
32 | CCNC(=S)N1CCC(C(N)=O)CC1 | inactive: 100%
33 | O=C1CN(C(=O)Nc2ccccc2Cl)C(c2ccccc2)c2c(sc3c2CCCC3)N1 (stereo unspecified) | inactive: 78%
34 | Cc1nn(-c2ccccc2)c2c1N(CCCC(=O)NCc1ccccc1)C(=O)CS2 | inactive: 78%
35 | COc1ccc(-c2noc(-c3ccc(NC4CCCCC4)c([N+](=O)[O-])c3)n2)cc1 | inactive: 82%
36 | CCc1nn2c(=O)cc(COC(=O)c3ccc(NC(=O)C4CCCCC4)cc3)nc2s1 | inactive: 68%
37 | CCC1CCc2nc3sc(C(=O)Nc4cccc(C(F)(F)F)c4)c(N)c3cc2C1 (stereo unspecified) | inactive: 141%
38 | O=C(COc1ccc(F)cc1)Nc1ccccc1OCc1cc(=O)n2ccccc2n1 | inactive: 71%

Row | Compound | survival
39 | COc1ccc(S(=O)(=O)Nc2cc3c(cc2N2CCOCC2)n(C)c(=O)n3C)cc1 | inactive: 122%
40 | COc1cccc(NC(=O)c2ccc3[nH]c(C)cc(=O)c3c2)c1 | inactive: 116%
41 | O=C(CCn1c(=O)c2cccn2c2cccnc21)NCc1ccccc1F | inactive: 111%
42 | CCCc1cc(=O)oc2cc(C)c3c(C(C)(C)C)coc3c12 | inactive: 86%
43 | Oc1ccc(-c2cccc(-c3ccc(O)cc3)c2)cc1 | inactive: 101%
44 | COC(=O)c1ccc(Cn2nc(-c3ccc(C)cc3)ccc2=O)cc1 | inactive: 145%
45 | Nc1ccccc1N1CCN(C(=O)c2ccccc2)CC1 | inactive: 98%
46 | Cn1c(SCc2ccccc2Cl)nc2c([nH]c3ccccc32)c1=O | inactive: 65%
47 | CCc1cccc(NC(=O)c2oc3ccc4c(c3c2C)C(=O)CC(C)(C)O4)c1 | inactive: 91%
48 | COc1cccc(CN2C(=O)C3(SCC(=O)N3c3ccc(C(C)C)cc3)c3ccccc32)c1 (stereo unspecified) | inactive: 66%
49 | CCOc1ccc(C(=O)Nc2ccc3oc(-c4ccc(Br)cc4)nc3c2)cc1 | inactive: 75%
50 | COc1cccc(CNS(=O)(=O)c2ccc(-c3cc(C(F)(F)F)on3)s2)c1 | inactive: 87%
51 | O=C(c1ccc2c(c1)OCCO2)N(Cc1cccnc1)c1nc2c(F)cc(F)cc2s1 | inactive: 75%
52 | CCOC(=O)c1ccc(N2C(=O)Cc3cc(OCC)c(OCC)cc3C2c2ccccc2)cc1 (stereo unspecified) | inactive: 90%
53 | COc1ccc(N(CC(=O)Nc2cc(Cl)ccc2C)S(=O)(=O)c2c(C)noc2C)cc1 | inactive: 82%
54 | CCOc1ccc(NS(=O)(=O)c2ccc3[nH]cc(C(=O)N4CCCCCC4)c(=O)c3c2)cc1 | inactive: 122%
55 | COc1ccc(Cc2nc3ccc(C(=O)NCCCN4CCN(C)CC4)cc3o2)cc1 | inactive: 135%
56 | Cc1ccccc1-c1nc(SCC(=O)NCC2CCCO2)c2c(=O)n(C)c(=O)n(C)c2n1 (stereo unspecified) | inactive: 77%
